The whole screen tested about 150,000 compounds, of which about 540 (0.36%) showed an effect of 50% or more. The list shows a part of the results.
The compounds below were run on Plasmodium falciparum (assay: Primary screen in NF54 nanoGlo assay, in single point, at 2uM, 72h; a lower Z score goes with more inhibition). Details: timepoint 72 hour.
Assay type: functional, Erythrocyte

Structure (SMILES) | % Inhibition [%] | Z score
COCCN1CCC(CN(C[C@H]2CCCO2)C(=O)c2cnn(Cc3ccccc3)c2)CC1 | -25 | 2.31
C[C@@H](CN(C)C(=O)OC(C)(C)C)c1noc(-c2cc(C#N)c[nH]2)n1 | -4 | 0.57
N#Cc1c[nH]c(C(=O)NC2c3ccccc3CCC2n2ccnc2)c1 (stereo not drawn) | -1 | 0.11
COC[C@H]1COCCN1C(=O)Nc1cnc(Oc2ccccc2)nc1 | -12 | 2.28
C[C@H](NC(=O)[C@H]1CC[C@H](CNS(=O)(=O)c2ccc(Cl)cc2)CC1)C(=O)NCCN(C)C | -12 | 1.28
Cc1nnc(C(C)N2CCCC(c3ncc[nH]3)C2)s1 (stereo not drawn) | -4 | 0.62
Cc1c(N)cccc1N1CCCNC1=O | -13 | 1.55
COc1ccc(S(=O)(=O)CCN)cc1 | -5 | 0.68
CCOC1CC(NC(=O)Cn2cnnn2)C12CCCC2 (stereo not drawn) | 2 | -0.36
Cn1cc([C@@H]2CCCCN2C(=O)c2cnns2)cn1 | -5 | 0.58
O=C(Cc1ccc2[nH]c(=O)[nH]c2c1)N1CC[C@H]1C(F)(F)F | -2 | 0.4
COc1ccc(C(=O)N[C@H](C(=O)NCC(C)C)C2CCN(C(=O)c3cccc(F)c3)CC2)cc1 | 1 | -0.13
CCc1nc([C@@H]2CCCN2Cc2ncc(C(C)C)o2)no1 | -2 | 0.18
Cc1ccc(S(=O)(=O)NCc2nc(N(C)C)no2)cc1 | -5 | 0.83
Cc1cccc(C(=O)N(Cc2ccc(C#N)cc2)c2nc3[nH]c(C)c(Cc4ccccc4)c(=O)n3n2)c1 | 8 | -1.03
CC(=O)N1CCN(c2cc(N(C)C)nc(C)n2)CC1 | -16 | 1.8
O=C(Cc1ccnc(O)c1Br)NCCC1=CCCCCC1 | 10 | -1.26
Fc1ccc(CN2CCN3CCOC[C@@H]3C2)cc1Cl | -1 | 0.08
CCCn1nc(C)c(Cn2cnc(-c3ccccc3)c2[C@H]2CCOC2)c1C | -9 | 0.92
C[C@@H]1CN(C2CCN(C(=O)c3cnn4ccccc34)CC2)C[C@H](C)O1 | -17 | 1.84
CN(C(=O)c1ccc(Br)c(Cl)c1)c1cccnc1 | -8 | 0.9

Structure (SMILES) | % Inhibition [%] | Z score
COc1ccc2cc(C(=O)NCCCc3nnc(N)s3)n(C)c2c1 | -7 | 0.9
Nc1nc(Cn2cccc(C(F)(F)F)c2=O)nc(Nc2ccccc2)n1 | -3 | 0.25
CS(=O)(=O)N1CCC(C(=O)NC2(c3cccs3)CCOCC2)CC1 | 8 | -1.15
Cc1ccc(OCCNC(=O)NCC(C)C)c(C)c1 | -11 | 1.34
Cc1cc2c(cc1C)O[C@H](C(=O)NCc1cnc(N3CCOCC3)c(F)c1)C2 | 10 | -1.04
c1ccc2sc(N[C@H]3CCOC4(CCOCC4)C3)nc2c1 | -16 | 1.83
Cc1noc(C)c1S(=O)(=O)N[C@H]1CCOc2ccccc21 | 29 | -3.83
CC(C)Cc1cc(C(=O)N2CCC3(CC2)c2ccccc2C[C@@H]3O)no1 | 4 | -0.71
Nc1nccnc1C(=O)OCC(=O)NC1CCCCCC1 | -7 | 1.42
CCN(CC)c1nc(N)cc(-c2cc(N)nc3[nH]ccc23)n1 | -2 | 0.45
Cc1noc(NC(=O)c2nn(C)c(=O)c3ccccc23)n1 | -5 | 0.79
Cc1cc(C(=O)N2CCC[C@H](Cn3cnc4ccccc43)C2)ns1 | 10 | -1.11
CCOc1ccc(-c2cc3nc(C4CCN(C(=O)OC(C)(C)C)CC4)c(C(=O)O)cn3n2)cc1 | 21 | -3.19
CN1CCN(C(=O)c2cccn2C)CC1=O | 21 | -2.48
C[C@H](NC(=O)C1CCN(S(C)(=O)=O)CC1)c1ccc(N2CCCC2)cc1 | -12 | 1.61
Cc1ccc(C(=O)N2CC[C@H](Cc3nnc(C4CCOCC4)o3)C2)s1 | -18 | 2.36
COc1cc(CNCCc2nncn2C)cc(Br)c1OCc1ccccc1 | 0 | -0.02
Cc1nc2c3ccccc3nc(N(C)[C@@H](C)c3ccccn3)n2n1 | -13 | 2.42
Cc1noc(C)c1CN1C[C@H]2CC[C@@H](C1)N(C(=O)c1cccc(Cl)c1)C2 | -9 | 1.72
Cc1cccc(NC(=O)CCC(=O)OCC(F)(F)F)c1C | 37 | -5.34
CC(C)(C)NC(=O)N1C2CCC1CC(=C1CC1)C2 | -9 | 1.26

Structure (SMILES) | % Inhibition [%] | Z score
COc1cccnc1-c1ccccc1CN1CCOCC1 | -5 | 0.97
CCn1c(-c2cc(NC(=O)c3cc(C)cc(C)c3)[nH]n2)cc2ccccc21 | -14 | 1.71
Cc1noc(C)c1CC(=O)N1CCC(Oc2cnc3ccccc3n2)CC1 | -14 | 2.71
Clc1cccc2c1CCN(C1CCN(Cc3ccco3)CC1)C2 | -7 | 0.67
CC(=O)Nc1nc2ccc(NC(=O)CN3C(=O)c4ccccc4C3=O)cc2s1 | -6 | 1.02
COCCN1C[C@@H](CNC(=O)c2ccccc2-c2cccc(C)c2)CC1=O | -3 | 0.49
Nc1cccc(Nc2nnc3c(=O)[nH]c(=O)[nH]c3n2)c1 | 28 | -3.14
CN(C)C(=O)c1ccc(CN(C)[C@H](c2ccccc2)C(F)(F)F)[nH]1 | -14 | 1.99
CC(=O)Nc1ccc(C)c(NC(=O)CCN(C)c2ccccc2)c1 | -6 | 1.13
Cc1ccc(NC[C@H]2CCN(c3nn4cc(C)nc4s3)C2)nc1 | -9 | 1.39
CCN(C[C@H]1CCCCO1)S(=O)(=O)c1c(C)cc(C)c2nonc12 | -9 | 1.58
CCc1n[nH]c(NC(=O)[C@@H]2CC[C@H](C)O2)c1Br | 5 | -0.55
CN(c1nc2c(c(N3CCCCC3)n1)CN(S(=O)(=O)c1cccc(Cl)c1)CC2)C1CCCCC1 | 4 | -0.39
COC[C@H]1CCCN(Cc2cc(CN3CCN(C)CC3)c(C)cc2C)C1 | -24 | 2.1
Cc1cnc(Cn2cnc(-c3ccccc3)c2-c2sccc2C)cn1 | -10 | 1.59
c1coc(CN2CN(c3nc4ccccc4s3)CN(c3nc4ccccc4s3)C2)c1 | -7 | 1.05
Cc1ccc(CN(C)C(=O)c2sc(-c3ccco3)nc2-c2ccccc2)o1 | 1 | -0.09
O=c1c(-c2nc3ccccc3[nH]2)c(Cl)c2cc(Cl)ccc2n1Cc1ccccc1 | -46 | 5.43
COc1cccc(-c2nnc(NC(=O)C(c3ccccc3)c3ccccc3)o2)c1 | -8 | 1.42
O=S1(=O)CC[C@H](c2nc(C3(c4ccc(F)cc4)CCC3)no2)C1 | 2 | -0.35
CC(C)[C@H](CNc1cccc(C(=O)N(C)C)n1)N(C)C | -11 | 2.14

Structure (SMILES) | % Inhibition [%] | Z score
CCn1cc(S(=O)(=O)N2CCC3(CC2)C[C@@H]3c2noc(C)n2)cn1 | -13 | 1.82
Cn1nccc1CCNC(=O)N(Cc1c(F)cccc1F)C1CC1 | -12 | 1.22
CN(c1ccccc1NC(=O)NCc1ncnn1C)C1CCCC1 | 33 | -3.78
Cc1ccc(Oc2nc(N3CCC(C)CC3)nc3c2CN(C(=O)c2c(F)cccc2F)CC3)cc1 | -8 | 1.03
CC[C@@H]1Oc2ccc(NC(=O)OCc3ccccc3)cc2CN(CCc2ccc(F)cc2)C1=O | -9 | 0.82
Cc1ccc(NC(=O)N2CCCN(c3ccc(NC(=O)c4cccs4)cc3C(=O)NCc3ccc(F)cc3)CC2)cc1 | 48 | -9.54
O=C(Cc1cc(-c2ccccc2)on1)Nc1nccs1 | -21 | 2.47
CCN(CC)S(=O)(=O)NCc1csc(-c2ccn(C)n2)n1 | -14 | 1.56
COC(=O)C[C@H](NC(=O)c1nn(-c2ccccc2)c(C)cc1=O)c1ccc(C)cc1 | -12 | 1.58
CCC(CC)C(=O)N[C@H]1CCN2C(=O)c3cc(-c4ccc(OC)cc4OC)ccc3NC(=O)[C@@H]2C1 | 9 | -1.09
COc1ncc(NC(=O)Nc2ccc3c(c2)OCO3)c(N2CCCC2)n1 | 0 | -0.05
COCCN(c1ccncc1)S(=O)(=O)c1cccc(C)c1Cl | -8 | 0.7
CO[C@](C)(C(=O)NCc1noc(C)n1)C1CC1 | 20 | -2.48
O=C(NCc1ccc(F)cc1)C1CCN(S(=O)(=O)c2cc(C(=O)N3CCCCCC3)cs2)CC1 | -9 | 1.5
CC(CCC1CC1(Cl)Cl)NCCn1ccnc1 (stereo not drawn) | 3 | -0.54
Cc1cc(CN(C)C(=O)c2ccc3c(c2)OCO3)no1 | -6 | 0.59
Clc1cnccc1CN1CCc2[nH]cnc2[C@@H]1CCc1ccccc1 | -4 | 0.36
COc1ccc(CN2C(=O)CC[C@@]2(C)C(=O)NCc2ccccc2)cc1 | -2 | 0.27
CCN(CC)C(=O)Cn1ccc2ncccc2c1=O | -1 | 0.21
O=C(CCc1ccc(F)cc1)NCc1cccnc1 | 1 | -0.12
Cc1ccccc1[C@H]1CCN(CCNC(=O)Nc2cccc(CC(N)=O)c2)C1 | 0 | 0.01
